# In the BET-seq Pho4 binding data (Le et al. 2018):
# This is one part of the list. The energies were worked out here from pooled read counts, against the library average; single values are noisy.
# Biological target: T1, Pho4 (S. cerevisiae) (UniProt P07270)
# T1 sequence: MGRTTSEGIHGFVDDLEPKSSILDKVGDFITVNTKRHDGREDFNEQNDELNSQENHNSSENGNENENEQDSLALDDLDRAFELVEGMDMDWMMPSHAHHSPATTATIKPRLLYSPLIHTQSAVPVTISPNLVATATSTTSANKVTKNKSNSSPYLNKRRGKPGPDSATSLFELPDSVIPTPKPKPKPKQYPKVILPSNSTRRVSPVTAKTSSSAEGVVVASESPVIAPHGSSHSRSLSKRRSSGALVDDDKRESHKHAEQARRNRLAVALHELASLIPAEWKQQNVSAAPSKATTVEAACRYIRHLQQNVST
# Experiment: relative binding free energy (BET-seq); higher = weaker binding
# Details: reference: library average
row,Sequence,relative binding free energy
1,GGAGGCACGTGTGGTC,-0.02 kcal/mol
2,TGCGTCACGTGGTATT,-0.01 kcal/mol
3,ATTAACACGTGTGTAG,-0.13 kcal/mol
4,TCGGACACGTGGGGCT,-0.11 kcal/mol
5,CTAAGCACGTGTTGTG,-0.24 kcal/mol
6,GTTTGCACGTGTTTTC,-0.07 kcal/mol
7,CCGTGCACGTGGTAGG,-0.07 kcal/mol
8,GAGAGCACGTGTTGTA,-0.15 kcal/mol
9,GAAGTCACGTGTAAAG,0.31 kcal/mol
10,AGTGTCACGTGCTAAG,0.04 kcal/mol
11,ATTGACACGTGTGTCG,-0.08 kcal/mol
12,AAGGGCACGTGGTTTC,-0.14 kcal/mol
13,TTGACCACGTGGTTGG,-0.11 kcal/mol
14,TAATGCACGTGGTGAC,-0.1 kcal/mol
15,TTGTACACGTGATGTA,0.22 kcal/mol
16,TGGGACACGTGCGGGC,-0.08 kcal/mol
17,TGCGCCACGTGATGGG,-0.08 kcal/mol
18,GTTAACACGTGAGATA,0.28 kcal/mol
19,GTATTCACGTGGTCCG,0.23 kcal/mol
20,GGAAGCACGTGTGTAG,-0.19 kcal/mol
21,AGCGTCACGTGATTAG,0.33 kcal/mol
22,GTTTCCACGTGGTTGC,0.13 kcal/mol
23,TATGGCACGTGGGAAG,-0.26 kcal/mol
24,GCGGCCACGTGATGTG,0.06 kcal/mol
25,TGGGGCACGTGTAGTC,0.06 kcal/mol
26,TTGGACACGTGGGGTG,-0.07 kcal/mol

row,Sequence,relative binding free energy
1,TCGGTCACGTGTTGCT,0.14 kcal/mol
2,TCATACACGTGGGCTT,0.01 kcal/mol
3,GCATACACGTGTTGGT,0.05 kcal/mol
4,CGCGTCACGTGATTGG,0.11 kcal/mol
5,CAAGTCACGTGGGATT,0.08 kcal/mol
6,AATGTCACGTGGTATG,0.1 kcal/mol
7,TGGGTCACGTGAGTCT,0.25 kcal/mol
8,AATGTCACGTGAGATT,0.25 kcal/mol
9,TTGGGCACGTGTTCAA,-0.16 kcal/mol
10,CGAGGCACGTGGTAGA,-0.06 kcal/mol
11,TTCGGCACGTGGGGAT,-0.22 kcal/mol
12,GCGGGCACGTGCGAGG,-0.26 kcal/mol
13,ATTTTCACGTGGTCTA,0.25 kcal/mol
14,TTCCACACGTGGTGGT,-0.03 kcal/mol
15,AGTCTCACGTGGAGGT,0.22 kcal/mol
16,GGTTCCACGTGGTATA,-0.02 kcal/mol
17,GGTTGCACGTGATGGT,0.21 kcal/mol
18,TTTGCCACGTGAATTG,0.14 kcal/mol
19,AGGTTCACGTGTATGG,0.26 kcal/mol
20,CTAGACACGTGGTGTT,-0.05 kcal/mol
21,ATGTACACGTGGTGCT,-0.02 kcal/mol
22,CTAGACACGTGTGTGG,-0.07 kcal/mol
23,TCTGTCACGTGGGCAG,-0.03 kcal/mol
24,ATGAGCACGTGGTTTG,-0.04 kcal/mol
25,TTAAACACGTGGTTGT,-0.1 kcal/mol
26,TAGGGCACGTGACGAG,0.14 kcal/mol

row,Sequence,relative binding free energy
1,ATGGTCACGTGTCAAG,0.07 kcal/mol
2,GTCTCCACGTGGGGGG,-0.1 kcal/mol
3,TTTTGCACGTGTGATA,0.06 kcal/mol
4,GTAGGCACGTGGGCAC,-0.2 kcal/mol
5,ATTGTCACGTGTTCGG,0.14 kcal/mol
6,TTCAACACGTGAGGTT,0.21 kcal/mol
7,ATGGGCACGTGTCGGC,-0.05 kcal/mol
8,CAGGTCACGTGGGGAT,0.02 kcal/mol
9,CTTTGCACGTGGAGTA,-0.06 kcal/mol
10,ATGTCCACGTGGAGGA,-0.01 kcal/mol
11,ATGGCCACGTGGTTGT,-0.24 kcal/mol
12,GAGTTCACGTGCATTT,0.35 kcal/mol
13,ATGAGCACGTGAGTCG,0.18 kcal/mol
14,GTCATCACGTGTTAGT,0.18 kcal/mol
15,TAGAGCACGTGAGTTA,0.21 kcal/mol
16,TGTGCCACGTGGGCAT,-0.27 kcal/mol
17,TACAGCACGTGTGAGT,0.1 kcal/mol
18,TTTGTCACGTGGCCGG,0.13 kcal/mol
19,GGCGTCACGTGAGCGG,0.23 kcal/mol
20,TCTGTCACGTGTCGTT,0.1 kcal/mol
21,GATATCACGTGGTGCG,0.2 kcal/mol
22,TAGAACACGTGGGATG,-0.05 kcal/mol
23,TGGGACACGTGGTAGA,-0.05 kcal/mol
24,TGATTCACGTGAAAGT,0.4 kcal/mol
25,GGGGCCACGTGGAGGG,-0.04 kcal/mol
26,TTGGTCACGTGGTGCG,0.15 kcal/mol

row,Sequence,relative binding free energy
1,AAGAACACGTGTGTGT,0 kcal/mol
2,GTGGACACGTGGGGCC,-0.14 kcal/mol
3,GGTGGCACGTGTGGAA,0.16 kcal/mol
4,TTCTACACGTGTATGA,0.25 kcal/mol
5,GTGTTCACGTGCTCAT,0.38 kcal/mol
6,ACGTTCACGTGAGTGT,0.23 kcal/mol
7,GGTGTCACGTGGCAGC,0.07 kcal/mol
8,CAATGCACGTGGGGTT,-0.2 kcal/mol
9,CGTGACACGTGGTGCG,-0.23 kcal/mol
10,TGTGGCACGTGTGGAT,-0.05 kcal/mol
11,ATTATCACGTGGCTTA,0.05 kcal/mol
12,AAGAACACGTGGAGGG,-0.08 kcal/mol
13,TTATTCACGTGCTTGT,0.12 kcal/mol
14,AGGGTCACGTGCGTGT,-0.04 kcal/mol
15,GAATGCACGTGCATGG,0.11 kcal/mol
16,ATTTTCACGTGCGGGG,0.25 kcal/mol
17,AAGTGCACGTGTTCGT,0.02 kcal/mol
18,ATCATCACGTGTTAAT,0.25 kcal/mol
19,TTGCGCACGTGTGGAT,-0.03 kcal/mol
20,ATGGACACGTGAAGAG,0.29 kcal/mol
21,CGGGTCACGTGAGTAT,0.22 kcal/mol
22,TAGACCACGTGGGTGG,-0.16 kcal/mol
23,GGGCACACGTGAGGGA,0.37 kcal/mol
24,TGTCGCACGTGACGGG,0.03 kcal/mol
25,ACGGACACGTGTGTGA,0.14 kcal/mol
26,TTTGGCACGTGGTGCA,-0.3 kcal/mol

row,Sequence,relative binding free energy
1,AATGGCACGTGTATAG,-0.05 kcal/mol
2,GGTGACACGTGTTAAG,0.04 kcal/mol
3,GTGTTCACGTGGCAGG,0.31 kcal/mol
4,GTTTGCACGTGTTGCA,0.14 kcal/mol
5,TGTTACACGTGTTAGA,0.11 kcal/mol
6,TAGGGCACGTGGGCAA,-0.21 kcal/mol
7,AGTCGCACGTGGAGGT,-0.02 kcal/mol
8,TGTCGCACGTGAGTGG,0.01 kcal/mol
9,CGTATCACGTGAGAGT,0.42 kcal/mol
10,GAATTCACGTGGAAGG,0.42 kcal/mol
11,AAGGGCACGTGGCGTC,-0.22 kcal/mol
12,GTTGGCACGTGTACGC,0.18 kcal/mol
13,GTACACACGTGTGGCG,0.19 kcal/mol
14,TATGTCACGTGTTGGC,0.05 kcal/mol
15,TAGATCACGTGTTTCG,0.24 kcal/mol
16,TCTGCCACGTGGGGTT,-0.32 kcal/mol
17,TCGGCCACGTGTGGAG,0.04 kcal/mol
18,GTTGTCACGTGTCGAT,0.06 kcal/mol
19,TTTGACACGTGTTGAA,0.03 kcal/mol
20,ATTTGCACGTGGGAGT,-0.13 kcal/mol
21,CTTTTCACGTGCGGTT,0.16 kcal/mol
22,TGTCGCACGTGATCGG,-0.09 kcal/mol
23,TCGGGCACGTGGTATT,-0.06 kcal/mol
24,ATTAACACGTGAGGCG,0.38 kcal/mol
25,TAGGGCACGTGCGTTC,-0.12 kcal/mol
26,TTGCTCACGTGGTCTG,0.06 kcal/mol

row,Sequence,relative binding free energy
1,ATCGACACGTGTCGGT,0.24 kcal/mol
2,GGTGACACGTGTAAAG,0.1 kcal/mol
3,AGTCACACGTGAGTGT,0.1 kcal/mol
4,CTGTTCACGTGGCTTG,0.2 kcal/mol
5,AGTGCCACGTGTGTTG,0.02 kcal/mol
6,CGGGTCACGTGGTGCT,-0.07 kcal/mol
7,TTCCTCACGTGTGGTT,0.27 kcal/mol
8,ATTGTCACGTGGCATA,0.08 kcal/mol
9,AGTCGCACGTGTAGGC,0.09 kcal/mol
10,CTTGGCACGTGTGTAA,-0.13 kcal/mol
11,TGTTCCACGTGTAATT,0.06 kcal/mol
12,AGTTACACGTGGAAAG,0.15 kcal/mol
13,CGTTACACGTGTTGTG,0.05 kcal/mol
14,AGATCCACGTGGGGGG,-0.22 kcal/mol
15,TGGATCACGTGTTAAT,0.18 kcal/mol
16,GGCCGCACGTGCGTGT,-0.03 kcal/mol
17,GAATTCACGTGCATTT,0.42 kcal/mol
18,TTCCTCACGTGGTTAG,0.28 kcal/mol
19,GGGAGCACGTGCGGTT,-0.07 kcal/mol
20,ATGATCACGTGATTGA,0.18 kcal/mol
21,GTCGTCACGTGTTGTA,0.23 kcal/mol
22,GGTACCACGTGTGGTA,-0.15 kcal/mol
23,TTGTTCACGTGATGAA,0.4 kcal/mol
24,TTATACACGTGGTTTA,-0.05 kcal/mol
25,AGAGTCACGTGGGGGC,-0.03 kcal/mol
26,ACATGCACGTGGGGAT,-0.18 kcal/mol

row,Sequence,relative binding free energy
1,ATAGTCACGTGGTTCT,0.07 kcal/mol
2,GGATTCACGTGTTGGT,0.41 kcal/mol
3,CGCTGCACGTGTTGTG,-0.08 kcal/mol
4,TGGAGCACGTGTCGCT,-0.14 kcal/mol
5,TAATGCACGTGTTGGT,0.02 kcal/mol
6,TGATTCACGTGATACG,0.26 kcal/mol
7,GTATTCACGTGTATAA,0.28 kcal/mol
8,TTTCACACGTGTGGGA,0 kcal/mol
9,AGGCGCACGTGGTAAG,-0.16 kcal/mol
10,TGGGCCACGTGGTTGG,-0.03 kcal/mol
11,GAGGGCACGTGGAAAT,0.22 kcal/mol
12,GGGAGCACGTGGGAGC,-0.09 kcal/mol
13,AAATTCACGTGAGGTA,0.35 kcal/mol
14,CTTATCACGTGTTGGG,0.14 kcal/mol
15,TTAAACACGTGATTAG,0.08 kcal/mol
16,GTGGCCACGTGTGGCA,-0.03 kcal/mol
17,TCATGCACGTGGTTGT,-0.14 kcal/mol
18,AGTTTCACGTGTCGGG,0.21 kcal/mol
19,GGTTGCACGTGTTGCA,0.16 kcal/mol
20,AGTGGCACGTGTGACG,-0.07 kcal/mol
21,CTGGGCACGTGGGTTA,-0.1 kcal/mol
22,AATTGCACGTGTGATG,0.13 kcal/mol
23,TACGTCACGTGATTTG,0.11 kcal/mol
24,GGGAACACGTGACGGT,0.13 kcal/mol
25,TATTGCACGTGGAAGG,-0.03 kcal/mol
26,TTTTACACGTGGTGCG,0.11 kcal/mol

row,Sequence,relative binding free energy
1,CAGGGCACGTGTTGCG,-0.21 kcal/mol
2,TGGTCCACGTGTATGT,-0.01 kcal/mol
3,TTGCTCACGTGTGGAG,0.23 kcal/mol
4,CATGTCACGTGTTGAT,-0.02 kcal/mol
5,TTAGACACGTGCTTTT,0.02 kcal/mol
6,GACGGCACGTGGGAGG,-0.07 kcal/mol
7,GCGGTCACGTGCTTGG,0.06 kcal/mol
8,GATTACACGTGGTTGG,0.18 kcal/mol
9,AGGGACACGTGAATTT,0.16 kcal/mol
10,GGTTTCACGTGAGGAG,0.49 kcal/mol
11,TGTGGCACGTGAGAGG,0.21 kcal/mol
12,CAGTGCACGTGTATTG,-0.01 kcal/mol
13,GGGATCACGTGCATGT,0.24 kcal/mol
14,ATGGGCACGTGGAATT,0.11 kcal/mol
15,ATTTTCACGTGAGTGA,0.31 kcal/mol
16,TTCGGCACGTGGCGTT,-0.22 kcal/mol
17,TATCTCACGTGCTTTT,0.21 kcal/mol
18,CTGTTCACGTGGTGTA,0.2 kcal/mol
19,AATCACACGTGGTTGT,0.13 kcal/mol
20,TGTGGCACGTGTACTA,-0.11 kcal/mol
21,CGTGGCACGTGGAAGG,0 kcal/mol
22,CTTATCACGTGAGTGT,0.33 kcal/mol
23,CGGGGCACGTGCTGGA,-0.18 kcal/mol
24,GTAGACACGTGTAGGG,-0.03 kcal/mol
25,GGGAGCACGTGTGATC,0.07 kcal/mol
26,TGGGACACGTGAAAGG,0.32 kcal/mol

row,Sequence,relative binding free energy
1,GGCGGCACGTGTGAAG,0.13 kcal/mol
2,TTCTTCACGTGATTAT,0.3 kcal/mol
3,GGGTGCACGTGTAAAG,0.06 kcal/mol
4,CACGTCACGTGGGGAT,0.02 kcal/mol
5,ATACACACGTGTGTTG,-0.1 kcal/mol
6,CGAGACACGTGAGTGT,0.23 kcal/mol
7,AGGTACACGTGAGGTG,0.23 kcal/mol
8,GGAGACACGTGTGATG,-0.08 kcal/mol
9,GTGTGCACGTGTCATA,-0.03 kcal/mol
10,TATTTCACGTGTCGAA,0.27 kcal/mol
11,CTGTTCACGTGATTGA,0.29 kcal/mol
12,TTGTCCACGTGGCAGT,-0.04 kcal/mol
13,TTACTCACGTGGTTGA,0.24 kcal/mol
14,TGTGGCACGTGAACGG,0.14 kcal/mol
15,ATATTCACGTGAGCAT,0.46 kcal/mol
16,GTGGGCACGTGGCTTA,-0.16 kcal/mol
17,ATGGACACGTGTTCGT,0.07 kcal/mol
18,GGTAACACGTGAGTTG,0.2 kcal/mol
19,AAATCCACGTGGGTGG,-0.14 kcal/mol
20,AGTAGCACGTGATAGG,-0.13 kcal/mol
21,GCACGCACGTGTGGGT,-0.01 kcal/mol
22,CGTTGCACGTGTCTTG,0.02 kcal/mol
